Assay results published in PubChem BioAssay (Tox21).
“And” between values parts separate entries of the source, which are not always exact repeats. Identical values can stand only once. This list was built around the results that the source calls inconclusive (neither active nor inactive); the mix of calls is not that of the screen. A potency beside an inconclusive call is a rough fit, not a confirmed value. The source made the active and inactive calls. Unless noted, calls come from the whole dose curve; as a rule, active = well fitted cell-killing curve with a large enough effect in the repeat runs; inconclusive = weak or mixed curves; inactive = no such curve, though single readings can be large or run the other way.
% is set by controls: 0 for no effect and ±100 for the full control effect; potency is the fitted concentration of half-maximal effect; tags give direction and shape of the fitted curve.

Molecular target: Peroxisome proliferator-activated receptor delta (Homo sapiens) (UniProt Q03181)
Sequence of UniProt Q03181 (Q03181 whole entry, looked up): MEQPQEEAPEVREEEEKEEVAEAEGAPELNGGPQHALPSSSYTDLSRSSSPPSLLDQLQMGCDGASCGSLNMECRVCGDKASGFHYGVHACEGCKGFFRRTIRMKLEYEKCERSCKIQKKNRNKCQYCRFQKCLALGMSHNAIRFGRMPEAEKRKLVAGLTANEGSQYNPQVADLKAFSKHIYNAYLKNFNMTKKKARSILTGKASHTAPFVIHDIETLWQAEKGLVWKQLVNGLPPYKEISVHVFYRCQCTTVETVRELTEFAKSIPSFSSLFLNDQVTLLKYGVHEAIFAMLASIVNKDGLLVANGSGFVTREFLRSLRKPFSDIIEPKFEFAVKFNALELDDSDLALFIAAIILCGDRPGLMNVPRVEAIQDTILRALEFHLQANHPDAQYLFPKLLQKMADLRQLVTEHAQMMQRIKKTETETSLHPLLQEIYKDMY
Experiment: qHTS assay to identify small molecule agonists of the peroxisome proliferator-activated receptor delta (PPARd) signaling pathway (AID 743212; calls by dose curve;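 note: HEK293H cells with PPARd UAS beta-lactamase reporter GeneBLAzer system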)
Details: HEK293H PPARd-UAS-bla, beta-lactamase FRET ratio, 17 h; activation: at 62.6 µM (top of the series) unless noted
Summary of the method: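 Quantitative high-throughput agonist screen in a HEK293H beta-lactamase reporter line under UAS control. Compounds in DMSO, at 37 C. Fluorescence read after 2 h with FRET substrate at room temperature.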
With `CCc1cc(OC)c(C[C@H](C)N)cc1OC` the Potency was “inactive”. For `O=C(NC(=O)c1c(F)cccc1F)Nc1cc(Cl)c(OC(F)(F)C(F)F)c(Cl)c1`, the activation was inconclusive: 22.4%. For `c1csc(-c2ccc(-c3cccs3)s2)c1`, the Potency was active: 43.6 µM. In the case of `CC(C)CCCCCCCOP(=O)(Oc1ccccc1)Oc1ccccc1`, the Potency is reported as inconclusive: 24.7 µM [rising, single point]. For `CC(C)NC(=O)N1CC(=O)N(c2cc(Cl)cc(Cl)c2)C1=O`, the Potency was “inactive”. For `COC[C@@H](NC(C)=O)C(=O)NCc1ccccc1`, the Potency was “inactive”. For `CNC(=O)CSP(=O)(OC)OC`, the Potency was “inactive”. For `Sc1ccccc1Cl`, the Potency was “inactive”. With `Cc1cc(Cl)ccc1OCCCC(=O)O` the Potency was “inactive”. In the case of `COP(=O)(OC)C(O)C(Cl)(Cl)Cl` (stereo unspecified), the activation is reported as inconclusive: 4.14%. In the case of `CC(=O)Nc1ccc2c(c1)Cc1ccccc1-2`, the activation is reported as inconclusive: -0.903% [at 81.1 µM]. In the case of `C[C@]12CC[C@H](O)CC1=CC[C@@H]1[C@@H]2CC[C@]2(C)C(=O)CC[C@@H]12`, the Potency is reported as inconclusive: 55 µM. For `Clc1ccc(C(Cl)(Cl)Cl)c(Cl)c1`, the Potency was “inactive”. With `Clc1ccc(C(Cl)(Cl)Cl)cc1Cl` the Potency was “inactive”. For `CCOc1ccc(C(C)(C)COCc2cccc(Oc3ccccc3)c2)cc1`, the Potency was “inactive”.

System: not listed separately
Experiment: qHTS assay to identify small molecule antagonists of the peroxisome proliferator-activated receptor delta (PPARd) signaling pathway - cell viability counter screen (AID 743213); note: nearly all actives have a fitted effect of over 50% in size
Details: PPARd-bla HEK293H viability, CellTiter-Glo luminescence, 17 h; viability change, negative = cytotoxic: at 62 µM (top of the series) unless noted
Summary of the method: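 HEK293H PPARd UAS-bla cells, 5 h pre-incubation, compound + L165041 300 nM final, 17 h 37 C; B/G FRET substrate 2 h RT; then CellTiter-Glo 30 min RT, luminescence.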
In the case of `CCCCNC(=O)n1c(NC(=O)OC)nc2ccccc21`, the viability change, negative = cytotoxic is reported as inconclusive: 0.003%. For `CCOP(=S)(OCC)SC(CCl)N1C(=O)c2ccccc2C1=O` (stereo unspecified), the Potency was inconclusive: 0.195 µM [cytotoxic, full curve, poor fit]. In the case of `CC1(C)C(C(=O)OC(C#N)c2cccc(Oc3ccccc3)c2)C1(C)C` (stereo unspecified), the Potency is reported as inconclusive: 1.23 µM [cytotoxic, full curve, poor fit]. For `CCC(C)c1cc([N+](=O)[O-])cc([N+](=O)[O-])c1O` (stereo unspecified), the Potency was inconclusive: 0.776 µM [cytotoxic, single point]. For `c1csc(-c2ccc(-c3cccs3)s2)c1`, the Potency was “inactive”. For `COP(=S)(OC)Oc1ccc([N+](=O)[O-])cc1Cl`, the Potency was inconclusive: 27.5 µM [cytotoxic, partial curve, poor fit]. With `CC(C)CCCCCCCOP(=O)(Oc1ccccc1)Oc1ccccc1` the Potency was inconclusive: 8.75 µM [cytotoxic, partial curve]. For `Cc1cccc(Cc2cnc[nH]2)c1C`, the viability change, negative = cytotoxic was inconclusive: 11.7% [cytotoxic]. With `CNC(=O)CSP(=O)(OC)OC` the Potency was inconclusive: 1.1 µM [cytotoxic, single point]. With `OC(c1ccccc1)(c1ccccc1)C1CCNCC1` the Potency was “inactive”. In the case of `O=Cc1ccccc1`, the Potency is reported as inconclusive: 0.796 µM [cytotoxic, full curve, poor fit]. For `CCCC[n+]1cccc(C)c1`, the Potency was inconclusive: 15.7 nM [cytotoxic, full curve, poor fit] and inconclusive: 222 nM [cytotoxic, full curve, poor fit]. In the case of `O=C(N[C@@H]1N=C(c2ccccc2F)c2cccc3c2N(CC3)C1=O)c1cc2ccccc2[nH]1`, the Potency is reported as inconclusive: 3.76 µM [cytotoxic, full curve, poor fit]. With `CC(=O)Nc1ccc2c(c1)Cc1ccccc1-2` the Potency was inconclusive: 2.49 µM [cytotoxic, single point]. With `C[C@]12CC[C@H](O)CC1=CC[C@@H]1[C@@H]2CC[C@]2(C)C(=O)CC[C@@H]12` the Potency was inconclusive: 61.7 µM [cytotoxic, single point]. With `CN(C)c1ccc(N)cc1` the Potency was inconclusive: 0.536 µM [cytotoxic, full curve].
